In the antibiotic and cytotoxicity screens of Wong et al. (2023) one finds cytotoxicity call and growth inhibition call data, which are given here for 26 compounds.

This is one part of the list.

For experiment [1], the system named is HSkMC (human skeletal muscle cells). The experiment in a line: cytotoxicity call (relative viability < 0.9). The conditions noted are these: 10 µM.
Experiment [2] has as its system HepG2. The experiment is described as follows: cytotoxicity call (relative viability < 0.9). The conditions noted are these: 10 µM.
Experiment [3] concerns S. aureus RN4220. The experiment in a line: growth inhibition call (relative growth <= 0.2). The conditions noted are these: 50 µM.

As for `C[C@H](C(=O)N(C)C[C@H]1OCc2ccccc2-c2c(n(C)c3ccccc23)C(=O)N([C@H](C)CO)C[C@@H]1C)c1ccccc1`, the cytotoxicity call in experiment [1] and in experiment [2] was “inactive” in each case. In experiment [3], the growth inhibition call is “inactive”.

For the compound `Nc1ccn(C[C@@H](CO)OCP(=O)(O)O)c(=O)n1`, the cytotoxicity call in experiment [1] and in experiment [2] was “inactive” in each case. For the same compound, the growth inhibition call in experiment [3] was “inactive”.

For the compound `C[C@@H]1CN([C@@H](C)CO)C(=O)c2cc(NS(C)(=O)=O)ccc2O[C@@H]1CN(C)S(=O)(=O)c1cccs1`, the cytotoxicity call in experiment [1] and in experiment [2] was “inactive” throughout. In addition, the growth inhibition call in experiment [3] is “inactive”.

As for `C[C@@H]1CN([C@H](C)CO)C(=O)Cc2cc(NC(=O)Nc3ccc4c(c3)OCO4)ccc2O[C@H]1CN(C)S(=O)(=O)c1cn(C)cn1`, the cytotoxicity call in experiment [1] and in experiment [2] was “inactive” each time. The growth inhibition call in experiment [3] is “inactive”.

`C[C@H](CO)N1C[C@H](C)[C@@H](CN(C)C(=O)CCCN(C)C)OCCCC[C@H](C)Oc2ccc(NS(C)(=O)=O)cc2C1=O`: the cytotoxicity call in experiment [1] and in experiment [2] was “inactive” each time. For the same compound, the growth inhibition call in experiment [3] is “inactive”.

Regarding `COc1ccc([Si](C)(C)[C@@H]2[C@@H](CCO)O[C@]3(C(=O)N(Cc4ccccc4)c4ccc(N(C=O)c5ccccc5)cc43)[C@H]2C)cc1`, the cytotoxicity call in experiment [1] was “inactive”. In addition, in experiment [2], the cytotoxicity call was “active”. In experiment [3], the growth inhibition call was “inactive”.

For the compound `CN1CCN(C(=O)C[C@@H]2CC[C@H]3[C@H](COc4ccc(NC(=O)c5cscn5)cc4C(=O)N3C)O2)CC1`, the cytotoxicity call in experiment [1] and in experiment [2] was “inactive” each time. For the same compound, the growth inhibition call in experiment [3] is “inactive”.

Regarding `O=C(Nc1ccccc1)N1c2ccccc2CCc2ccccc21`, the cytotoxicity call in experiment [1] and in experiment [2] was “inactive” each time. Besides, the growth inhibition call in experiment [3] was “inactive”.

As to `C[C@@H]1CN([C@@H](C)CO)C(=O)c2cc(NC(=O)Nc3ccc(C(F)(F)F)cc3)ccc2O[C@@H](C)CCCCO[C@H]1CN(C)CC1CCCCC1`, the cytotoxicity call in experiment [1] and in experiment [2] was “inactive” throughout. Further, the growth inhibition call in experiment [3] is “inactive”.

Turning to `Cc1noc(C)c1S(=O)(=O)Nc1ccc2c(c1)C(=O)N([C@H](C)CO)C[C@@H](C)[C@H](CN(C)S(=O)(=O)c1cn(C)cn1)O2`, the cytotoxicity call in experiment [1] and in experiment [2] was “inactive” each time. Moreover, in experiment [3], the growth inhibition call is “inactive”.

Consider `C[C@@H]1CCCCO[C@@H](CN(C)Cc2ccccc2)[C@@H](C)CN([C@H](C)CO)C(=O)c2cc(NC(=O)CCCCCC(=O)Nc3ccccc3N)ccc2O1`, for which the cytotoxicity call in experiment [1] and in experiment [2] was “inactive” in each case. Moreover, the growth inhibition call in experiment [3] is “inactive”.

`C=CCOC(=O)[C@@H]1[C@H]2C(=O)O[C@H](c3ccccc3)[C@H](c3ccccc3)N2[C@H](c2ccc(OCCOC(=O)[C@@H]3C[C@@H]4C(=O)N5CCC[C@H]5C(=O)N4[C@@H]3c3ccc(O)cc3)cc2)[C@@]12C(=O)Nc1ccc(I)cc12`: the cytotoxicity call in experiment [1] and in experiment [2] was “inactive” each time. The growth inhibition call in experiment [3] was “inactive”.

`COc1ccc(NC(=O)Nc2cccc3c2O[C@@H](CN(C)Cc2ccc(Oc4ccccc4)cc2)[C@H](C)CN([C@@H](C)CO)C3=O)cc1`: the cytotoxicity call in experiment [1] is “inactive”. For the same compound, the cytotoxicity call in experiment [2] was “active”. Besides, in experiment [3], the growth inhibition call was “inactive”.

For `COc1ccc(NC(=O)Nc2ccc3c(c2)C(=O)N([C@@H](C)CO)C[C@@H](C)[C@@H](CN(C)S(C)(=O)=O)O3)cc1`, the cytotoxicity call in experiment [1] and in experiment [2] was “inactive” in each case. In addition, the growth inhibition call in experiment [3] was “inactive”.

Regarding `COc1ccc(S(=O)(=O)N(C)C[C@H]2OCCCC[C@@H](C)Oc3ccc(NS(=O)(=O)c4cn(C)cn4)cc3C(=O)N([C@H](C)CO)C[C@H]2C)cc1`, the cytotoxicity call in experiment [1] is “inactive”. In experiment [2], the cytotoxicity call was “active”. For the same compound, in experiment [3], the growth inhibition call is “inactive”.

Consider `COc1ccc(S(=O)(=O)N(C)C[C@H]2OCCCC[C@H](C)Oc3ccc(NC(=O)Nc4ccccc4)cc3C(=O)N([C@H](C)CO)C[C@@H]2C)cc1`, for which the cytotoxicity call in experiment [1] and in experiment [2] was “inactive” throughout. Moreover, the growth inhibition call in experiment [3] is “inactive”.

In the case of `COc1ccc(S(=O)(=O)N(C)C[C@H]2Oc3ccc(NC(=O)CCN4CCOCC4)cc3C(=O)N([C@H](C)CO)C[C@H]2C)cc1`, the cytotoxicity call in experiment [1] and in experiment [2] was “inactive” throughout. In addition, the growth inhibition call in experiment [3] was “inactive”.

In the case of `COCC(=O)N(C)C[C@H]1Oc2cc(-c3ccc(OC)cc3)ccc2S(=O)(=O)N([C@@H](C)CO)C[C@H]1C`, the cytotoxicity call in experiment [1] and in experiment [2] was “inactive” each time. The growth inhibition call in experiment [3] is “inactive”.

`C[C@H](CO)N1C[C@H](C)[C@H](CN(C)Cc2ccc(C(F)(F)F)cc2)Oc2c(NS(C)(=O)=O)cccc2C1=O`: the cytotoxicity call in experiment [1] and in experiment [2] was “inactive” each time. The growth inhibition call in experiment [3] is “inactive”.

For the compound `COc1ccc(C[C@H](N)C(=O)N[C@H]2[C@@H](O)[C@H](n3cnc4c(N(C)C)ncnc43)O[C@@H]2CO)cc1`, the cytotoxicity call in experiment [1] and in experiment [2] was “active” each time. Moreover, the growth inhibition call in experiment [3] was “active”.

Consider `O=C(CCCCCNC(=O)OCc1ccc(CO[C@@H]2C[C@H](C3CCCCC3)C=C(C(=O)N3CCN(Cc4ccc5c(c4)OCO5)CC3)O2)cc1)NO`, for which the cytotoxicity call in experiment [1] and in experiment [2] was “inactive” throughout. The growth inhibition call in experiment [3] is “inactive”.

For `Cc1c(CN2CCN(C(=O)[C@H](C)O)CC2)sc2c(N3CCOCC3)nc(-c3cnc(N)nc3)nc12`, the cytotoxicity call in experiment [1] and in experiment [2] was “active” each time. In addition, the growth inhibition call in experiment [3] is “inactive”.

As to `C[C@H]1CN([C@@H](C)CO)S(=O)(=O)c2ccc(-c3ccc(C(=O)N(C)C)cc3)cc2O[C@H]1CN(C)C(=O)C1CCC1`, the cytotoxicity call in experiment [1] and in experiment [2] was “inactive” each time. For the same compound, in experiment [3], the growth inhibition call was “inactive”.

As to `Cc1noc(C)c1NC(=O)Nc1ccc2c(c1)CC(=O)N([C@@H](C)CO)C[C@@H](C)[C@H](CN(C)S(=O)(=O)c1cn(C)cn1)O2`, the cytotoxicity call in experiment [1] and in experiment [2] was “inactive” throughout. Also, the growth inhibition call in experiment [3] was “inactive”.

As to `O=C(C[C@@H]1C=C[C@@H](NC(=O)c2cccnc2)[C@H](CO)O1)NCCN1CCCCC1`, the cytotoxicity call in experiment [1] and in experiment [2] was “inactive” throughout. Moreover, in experiment [3], the growth inhibition call was “inactive”.

Turning to `C[C@@H](O)CCCCn1c(=O)c2c(ncn2C)n(C)c1=O`, the cytotoxicity call in experiment [1] and in experiment [2] was “inactive” in each case. In experiment [3], the growth inhibition call was “inactive”.
